This is one part of the list. At the low end of the ranking the order means little.

This test addresses SIX1-Q177R homeodomain (UniProt Q15475). Description: universal protein binding microarray. As to conditions: Universal all-10-mer PBM (8x60K, AMADID 030236), 300 nM GST-tagged protein, Alexa Fluor 488 anti-GST; buffer, salt, pH and temperature not stated; high values mean tight binding; most listed sequences are background and not binding sites; double strand, one strand shown.
Take AAATGCCT: the binding signal was 0.0125 E-score.
In the case of GTAGTCTA, the binding signal is -0.0737 E-score.
GAGTTTGC: the binding signal was -0.17 E-score.
As to CAATTTGC, the binding signal is -0.184 E-score.
Take CCGGTGAA: the binding signal is -0.122 E-score.
As for ACCGCTCG, the binding signal was -0.0234 E-score.
Consider CCCTGAAC, for which the binding signal is 0.0787 E-score.
To TACATGGA belongs 0.0259 E-score; to CCCGCACG, 0.139 E-score; to AGGGAAAA, -0.149 E-score.
Take GAAGCATA: the binding signal was -0.283 E-score.
As for TGAAAAAA, the binding signal was -0.224 E-score.
For ATTGCGTC, the binding signal is 0.0916 E-score.
Turning to CCCACGCC, the binding signal was 0.0432 E-score.
With ACAGCCGT, the binding signal turned out to be 0.0707 E-score.
Then AAATATTT, with -0.346 E-score; and ACTCCGTA, with 0.0053 E-score.
In the case of GCTGCTGA, the binding signal was -0.0346 E-score.
Turning to GCGATATA, the binding signal is -0.166 E-score.
For ACGGTGCT, the binding signal came to 0.179 E-score.
As for GGTAGGAA, the binding signal was -0.174 E-score.
Then TAATAGAA, with -0.0487 E-score; and ACAAAGTC, with -0.157 E-score; and GTAGTGTA, with 0.427 E-score.
Regarding AATCTACG, the binding signal was -0.139 E-score.
In the case of ATTACATA, the binding signal is -0.126 E-score.
For CACACGCG, the binding signal worked out at 0.296 E-score.
AGCGTTCA: the binding signal was -0.263 E-score.
With GCAACTTA, the binding signal is -0.157 E-score.
Consider CCTAACAG, for which the binding signal is -0.208 E-score.
To CGGTGGCA belongs 0.0213 E-score; to GCAAGAGA, -0.198 E-score.
For ATACAGGC, the binding signal is -0.26 E-score.
In the case of CGGGCGAC, the binding signal worked out at 0.215 E-score.
Consider CTGCATAA, for which the binding signal is -0.0537 E-score.
With ATTTGTGA, the binding signal was -0.0853 E-score.
As for ACGAGAAG, the binding signal is -0.025 E-score.
For CTTGCCCA, the binding signal was -0.171 E-score.
In the case of TGTCGAAA, the binding signal is 0.196 E-score.
Turning to AGCCTATA, the binding signal is -0.161 E-score.
For ATGTTGAC, the binding signal is -0.0419 E-score.
Then AATATATT, with -0.237 E-score.
In the case of ATAATACA, the binding signal was 0.166 E-score.
AGCTAGTC: the binding signal was -0.227 E-score.
For the sequence ATCGGGGA, the binding signal was 0.0925 E-score.
On to AGTTGCAT, for which the binding signal is 0.0222 E-score.
For the sequence CTCGTTCC, the binding signal was -0.1 E-score.
Then CGCAGAAC, with -0.0421 E-score; and AGAATCAG, with -0.111 E-score; and GCCCTAAA, with -0.0722 E-score.
For AATTCATC, the binding signal was -0.232 E-score.
As for TCGTATAA, the binding signal is -0.158 E-score.
As to ATTCCGCG, the binding signal is -0.0292 E-score.
As to CATATTGG, the binding signal is -0.0511 E-score.
For the sequence AAGTATCT, the binding signal was -0.109 E-score.
Then TGCTAGAA, with -0.158 E-score.
As for AGGGGTTG, the binding signal amounted to 0.0874 E-score.
With GCTCATAC, the binding signal was -0.137 E-score.
In the case of CCGCACGA, the binding signal turned out to be 0.127 E-score.
Regarding CGATTGTC, the binding signal was -0.157 E-score.
Regarding CTACAGAA, the binding signal is -0.212 E-score.
GGACACCC: the binding signal was determined as 0.48 E-score.
Then GTATGTCA, with -0.0582 E-score; and AATTATTG, with -0.239 E-score.
Turning to GTAGCCGA, the binding signal is -0.0107 E-score.
To AACGAGCA belongs 0.062 E-score.
Regarding GTATGTAA, the binding signal was -0.0767 E-score.
CCTGATCA: the binding signal was -0.0324 E-score.
Regarding AACAAAAG, the binding signal was -0.187 E-score.
Consider AGCATAGG, for which the binding signal is -0.16 E-score.
Regarding GACGTTGC, the binding signal was -0.231 E-score.
On to CAAAAGGG, for which the binding signal is -0.0275 E-score.
On to ATCATTGA, for which the binding signal is -0.0439 E-score.
For GACGGACC, the binding signal is -0.174 E-score.
As to CAGCGGAA, the binding signal was -0.331 E-score.
With TCATTAAA, the binding signal is -0.0948 E-score.
Consider ACATTCAT, for which the binding signal was -0.276 E-score.
As for AACCCTCA, the binding signal came out at 0.113 E-score.
As to TCGGGACA, the binding signal is 0.0925 E-score.
CAATTAGC: the binding signal is -0.121 E-score.
Then GAGACCGA, with -0.0916 E-score; and ATCGGCAC, with 0.175 E-score.
For CCTACCAG, the binding signal is -0.164 E-score.
For the sequence ACTCACGC, the binding signal turned out to be 0.0814 E-score.
For the sequence CAGAGATA, the binding signal is -0.0053 E-score.
To AGTCAACC belongs -0.0208 E-score; to GGGTTCAC, 0.184 E-score; to AGGAAGAG, -0.181 E-score.
Take AATCCCCT: the binding signal worked out at 0.0434 E-score.
Then TCGCGAGA, with -0.159 E-score.
On to ATATCTTC, for which the binding signal was -0.131 E-score.
In the case of AGAAGTAG, the binding signal was -0.171 E-score.
Regarding AGCCCCAT, the binding signal was -0.122 E-score.
With CACTACCA, the binding signal was determined as 0.227 E-score.
On to AATGTTGC, for which the binding signal was -0.0683 E-score.
Take AAGGTGGG: the binding signal was 0.0518 E-score.
Consider GCGGAATA, for which the binding signal was -0.0323 E-score.
For the sequence TCCTACGA, the binding signal is -0.047 E-score.
With AAGACGGT, the binding signal turned out to be 0.0423 E-score.
Then ATGAGAAC, with -0.0295 E-score.
With CGCGGGTA, the binding signal came out at 0.273 E-score.
On to ATGCTATA, for which the binding signal was -0.237 E-score.
Consider ATCGTTGC, for which the binding signal is -0.0129 E-score.
For AATAGATA, the binding signal was -0.137 E-score.
For GGCCTCGA, the binding signal is -0.0916 E-score.
With ATCCTAAA, the binding signal is -0.0399 E-score.
ACAGTGGC: the binding signal was -0.0762 E-score.
For AGAGGCTC, the binding signal was -0.223 E-score.
For the sequence ACCCGCAC, the binding signal stood at 0.147 E-score.
TTCTACAA: the binding signal came to 0.0242 E-score.
Consider GGTCAGAC, for which the binding signal is -0.146 E-score.
To ACATCTCC belongs -0.2 E-score; to ATACTACC, 0.0251 E-score.
AACCACCT: the binding signal was -0.0487 E-score.
To ACAAGGAG belongs -0.0319 E-score; to CGTATTAA, 0.012 E-score; to ATAACATG, -0.0879 E-score.
In the case of CTTCTGCC, the binding signal was -0.177 E-score.
Turning to GATCCTAA, the binding signal is -0.00228 E-score.
As for AAAGAACG, the binding signal was -0.0893 E-score.
For ATGTCCAA, the binding signal was -0.198 E-score.
In the case of ATCGCAGA, the binding signal is 0.00534 E-score.
In the case of AAGGAGCA, the binding signal was -0.157 E-score.
As to GATCACTA, the binding signal came to 0.0458 E-score.
Then ATGTCGGC, with -0.0929 E-score; and GTACCTGA, with 0.104 E-score; and ACATTTTG, with -0.185 E-score.
As for AACTACGA, the binding signal was -0.00467 E-score.
For AACTATGA, the binding signal was -0.0603 E-score.
On to AAACAGCG, for which the binding signal is -0.101 E-score.
As to AAAAGGTT, the binding signal was -0.3 E-score.
To CAACTTTC belongs -0.16 E-score; to ATACTCAA, 0.092 E-score.
As to ACAACTCG, the binding signal is 0.0777 E-score.
As for GAAACGGC, the binding signal is -0.142 E-score.
For the sequence CATTCACC, the binding signal was -0.127 E-score.
Then AAACCCTA, with 0.157 E-score.
Regarding AGAGGACC, the binding signal is 0.0123 E-score.
On to ACGAGATC, for which the binding signal was -0.148 E-score.
On to TGTTCGAA, for which the binding signal came out at 0.089 E-score.
As to AGTAATCC, the binding signal is -0.0178 E-score.
To TCTCTCCA belongs -0.0788 E-score.
In the case of AAGAGCTA, the binding signal is -0.0801 E-score.
AGTGGAAA: the binding signal was -0.0983 E-score.
For the sequence TCGTCACA, the binding signal was 0.0535 E-score.
Regarding GCAGACCA, the binding signal was -0.259 E-score.
Regarding ACGTGGAG, the binding signal is -0.00873 E-score.
As to TCCAACCA, the binding signal is -0.0192 E-score.
Then GATACGAA, with -0.0533 E-score; and CGCGTCAC, with 0.0988 E-score.
In the case of CCTGAATA, the binding signal came out at 0.0856 E-score.
With CCTCAGGA, the binding signal is -0.155 E-score.
Then CATACAAG, with -0.0137 E-score; and CGGGCTCA, with 0.142 E-score; and GACGTACA, with 0.0635 E-score.
Then AATCGATG, with 0.0677 E-score.
Then CAACGGCC, with -0.177 E-score; and AAACAGGG, with -0.0897 E-score; and AGTCAGAG, with 0.156 E-score.
Regarding CATGACAA, the binding signal was -0.0242 E-score.
To CGAATAGA belongs -0.0564 E-score; to GCATATCA, -0.208 E-score.
Consider GATAAATC, for which the binding signal was -0.0921 E-score.
Then ATATACGC, with -0.161 E-score.
Then ATGAACCG, with 0.0408 E-score.
GGTATGAC: the binding signal worked out at 0.0249 E-score.
In the case of CAGATGAA, the binding signal was -0.202 E-score.
Regarding TCCAAAGA, the binding signal is -0.127 E-score.
Then AACCGGAA, with -0.257 E-score.
Consider ACACTGGA, for which the binding signal was 0.391 E-score.
TGTGTAAA: the binding signal turned out to be 0.235 E-score.
As for GCAGGGAC, the binding signal was -0.103 E-score.
Take CAGAATTA: the binding signal is -0.154 E-score.
CAGCAGTC: the binding signal was -0.0439 E-score.
For the sequence AGGCAGTG, the binding signal worked out at 0.0878 E-score.
AAGTGGGG: the binding signal was determined as 0.0947 E-score.
Turning to CTCCAAAG, the binding signal was -0.146 E-score.
With CGAGAGGC, the binding signal is -0.153 E-score.
For the sequence GATAGTCA, the binding signal was -0.0833 E-score.
As for CCTAAGCG, the binding signal is -0.052 E-score.
Regarding AAACGCGG, the binding signal was found to be 0.0564 E-score.
With CAGTCCTA, the binding signal amounted to 0.0146 E-score.
On to ACTGCCTG, for which the binding signal was -0.0387 E-score.
For GAGACCGC, the binding signal is -0.155 E-score.
Then GTAGTTCA, with -0.0394 E-score; and GCGCGAGC, with -0.0531 E-score; and CTTCGTTC, with -0.156 E-score.
On to CCTAAACC, for which the binding signal is -0.067 E-score.
AAGCCGGG: the binding signal came out at 0.101 E-score.
With CCAGTTAG, the binding signal was 0.111 E-score.
In the case of CTGGGCCC, the binding signal is -0.0728 E-score.
To ATGTCTAG belongs -0.213 E-score.
Then CTATCGTA, with 0.101 E-score.
Then GTGCTAAA, with 0.0974 E-score; and CTAGAAGA, with -0.137 E-score; and CTACAACC, with 0.0395 E-score.
As to AAAAGCTG, the binding signal was -0.0483 E-score.
For CCGGTCAC, the binding signal worked out at 0.0794 E-score.
Then ATGAGAGA, with -0.133 E-score.
Take GTTAGACA: the binding signal came out at 0.214 E-score.
For the sequence ACTACAAA, the binding signal came to 0.0719 E-score.
As to GCACACAA, the binding signal is -0.00891 E-score.
For CAGCGCTG, the binding signal was determined as 0.0146 E-score.
Regarding AGGTGGGA, the binding signal came out at 0.0922 E-score.
GCCGTAGA: the binding signal is -0.149 E-score.
Consider CCGTCCCC, for which the binding signal came to 0.0126 E-score.
Turning to AGGGCCAC, the binding signal is -0.2 E-score.
In the case of CAGAAGCG, the binding signal is -0.0423 E-score.
Regarding GGCGGGCA, the binding signal is -0.12 E-score.
In the case of CTATGAGC, the binding signal is -0.172 E-score.
AAGCAAGC: the binding signal was -0.231 E-score.
Then TCCTATAA, with -0.172 E-score; and GTATCTTA, with 0.11 E-score.
Then CGCACTTA, with -0.101 E-score.
Turning to CAGGACGG, the binding signal is -0.0736 E-score.
For the sequence AGTGATAG, the binding signal is -0.0083 E-score.
As for GACCCCCC, the binding signal was 0.248 E-score.
As to CGGCATAC, the binding signal came to 0.0159 E-score.
In the case of ATAAGGCC, the binding signal is -0.102 E-score.

The values above are taken from publication PMC10668032.
